Results on ten molecules are retold here after patent publication US20220402985A1.

Residue numbers refer to the chain shown, from its start. In names and notes the source's numbering stands. Several values for one entry are separate records, joined by “and”; a condition that tells them apart may be missing. Equal entries are not always repeated.

Experiment [1] has as its target ErbB3 on rat Schwann cells (rat) (UniProt Q62799). The experiment can be described thus: cell-based or functional assay.
Experiment [2] addresses ErbB4 on neonatal rat cardiomyocytes (rat) (UniProt Q62956). The experiment can be described thus: cell-based or functional assay.
Chain of UniProt Q62956 (Q62956 26-1308): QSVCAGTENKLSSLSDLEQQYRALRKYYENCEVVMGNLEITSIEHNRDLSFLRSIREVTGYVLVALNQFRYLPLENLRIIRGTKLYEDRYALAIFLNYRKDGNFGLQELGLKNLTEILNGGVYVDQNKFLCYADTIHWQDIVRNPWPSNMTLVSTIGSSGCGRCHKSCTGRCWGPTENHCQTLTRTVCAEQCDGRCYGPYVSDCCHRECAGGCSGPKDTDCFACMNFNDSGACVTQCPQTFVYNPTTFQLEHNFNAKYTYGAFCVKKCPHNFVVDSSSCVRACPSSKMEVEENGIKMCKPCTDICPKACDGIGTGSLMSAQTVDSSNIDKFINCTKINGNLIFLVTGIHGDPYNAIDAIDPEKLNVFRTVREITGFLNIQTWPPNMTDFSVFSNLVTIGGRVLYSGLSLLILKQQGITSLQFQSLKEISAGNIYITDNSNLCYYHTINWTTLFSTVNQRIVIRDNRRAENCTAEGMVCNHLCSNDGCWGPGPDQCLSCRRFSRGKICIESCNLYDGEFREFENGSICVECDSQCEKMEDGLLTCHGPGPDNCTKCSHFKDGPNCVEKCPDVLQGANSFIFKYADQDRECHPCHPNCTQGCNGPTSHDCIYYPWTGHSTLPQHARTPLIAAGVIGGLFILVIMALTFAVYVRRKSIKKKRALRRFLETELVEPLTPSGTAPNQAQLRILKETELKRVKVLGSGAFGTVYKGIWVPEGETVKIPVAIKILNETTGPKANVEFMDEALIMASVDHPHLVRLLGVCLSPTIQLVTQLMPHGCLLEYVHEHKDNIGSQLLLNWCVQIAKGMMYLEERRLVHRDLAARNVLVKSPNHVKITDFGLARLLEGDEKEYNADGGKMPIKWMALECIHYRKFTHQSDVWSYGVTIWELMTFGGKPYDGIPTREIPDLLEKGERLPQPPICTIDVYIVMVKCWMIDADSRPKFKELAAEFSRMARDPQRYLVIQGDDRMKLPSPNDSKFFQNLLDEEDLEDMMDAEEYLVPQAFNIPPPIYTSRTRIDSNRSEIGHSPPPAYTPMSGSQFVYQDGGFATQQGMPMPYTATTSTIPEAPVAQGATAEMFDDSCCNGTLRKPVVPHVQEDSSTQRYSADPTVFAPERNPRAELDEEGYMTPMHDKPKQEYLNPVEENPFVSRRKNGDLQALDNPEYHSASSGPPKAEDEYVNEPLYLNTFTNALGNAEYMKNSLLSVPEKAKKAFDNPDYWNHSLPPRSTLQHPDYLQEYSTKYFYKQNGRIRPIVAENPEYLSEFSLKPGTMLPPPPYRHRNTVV

Chain of UniProt Q62799 (Q62799 20-1339): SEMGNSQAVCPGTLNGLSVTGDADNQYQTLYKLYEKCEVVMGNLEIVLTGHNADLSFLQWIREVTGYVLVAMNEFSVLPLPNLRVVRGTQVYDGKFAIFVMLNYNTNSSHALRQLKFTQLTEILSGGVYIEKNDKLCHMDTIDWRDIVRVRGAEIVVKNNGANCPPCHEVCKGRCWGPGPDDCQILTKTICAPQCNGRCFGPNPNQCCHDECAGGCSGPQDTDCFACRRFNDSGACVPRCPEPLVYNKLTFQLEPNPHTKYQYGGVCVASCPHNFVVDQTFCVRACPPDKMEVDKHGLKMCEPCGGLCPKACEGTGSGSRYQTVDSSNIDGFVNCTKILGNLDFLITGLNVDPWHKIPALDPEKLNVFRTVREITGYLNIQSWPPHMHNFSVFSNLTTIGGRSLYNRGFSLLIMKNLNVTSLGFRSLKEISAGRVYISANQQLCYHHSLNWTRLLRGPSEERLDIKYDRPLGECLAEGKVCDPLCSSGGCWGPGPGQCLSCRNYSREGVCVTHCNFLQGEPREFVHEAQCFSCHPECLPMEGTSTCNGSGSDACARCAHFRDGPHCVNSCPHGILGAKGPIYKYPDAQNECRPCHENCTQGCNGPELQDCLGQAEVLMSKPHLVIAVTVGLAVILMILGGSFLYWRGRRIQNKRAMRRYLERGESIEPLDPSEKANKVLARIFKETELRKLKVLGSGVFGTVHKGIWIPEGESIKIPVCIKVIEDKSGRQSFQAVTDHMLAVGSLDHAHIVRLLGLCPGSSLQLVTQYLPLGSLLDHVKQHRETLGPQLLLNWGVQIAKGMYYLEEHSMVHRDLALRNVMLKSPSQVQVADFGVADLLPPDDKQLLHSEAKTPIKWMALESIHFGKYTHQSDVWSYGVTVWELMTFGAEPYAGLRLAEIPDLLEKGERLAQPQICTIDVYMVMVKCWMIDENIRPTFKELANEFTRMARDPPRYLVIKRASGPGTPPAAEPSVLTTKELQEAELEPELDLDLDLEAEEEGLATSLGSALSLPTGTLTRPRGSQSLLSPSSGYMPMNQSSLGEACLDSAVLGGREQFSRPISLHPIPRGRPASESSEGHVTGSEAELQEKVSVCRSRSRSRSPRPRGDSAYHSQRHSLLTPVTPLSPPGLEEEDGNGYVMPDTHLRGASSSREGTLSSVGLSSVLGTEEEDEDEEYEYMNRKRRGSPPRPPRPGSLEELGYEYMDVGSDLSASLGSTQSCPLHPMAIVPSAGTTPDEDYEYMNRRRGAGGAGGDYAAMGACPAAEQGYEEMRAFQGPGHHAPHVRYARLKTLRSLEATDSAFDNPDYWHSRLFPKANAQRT

B1: huNRG1(S177-F229)(NRGE1D) (E47S_D48S_F49E_M50L) huIgG1z SELF2 Fc (Fc fusion)
chain: SHLVKCGESHKSFCVNGGECYMVEGSSIPSRYLCKCPNEFTGDRCQSSELASFGGGGEGGGGAGGGG[letters of human IgG1 Fc with R292C N297G V302C (EU numbers) not shown]
In experiment [1], B1 registered a Schwann cells (SC) (ErbB3) Avg EC50 of 10 µM. In experiment [2], this molecule showed a CM % Agonism AVG of 86.3%, a Cardiomyocyte (CM) (ErbB4) Avg EC50 of 370 pM and a Selectivity SC/CM above 10000.

B2: huNRG1(S177-F229)(NRGE1D)((G4E)2)::G4::huFcSEFL2 (Pb) (Fc fusion)
chain: B1 chain with S47E, S48D, E49F, L50M, A63E
B2 gave a Schwann cells (SC) (ErbB3) Avg EC50 in experiment [1] above 10 µM. Further, in experiment [2], the CM % Agonism AVG is 88.2% and 84.6%; the Selectivity SC/CM is above 10000.

B3: huNRG1(S177-F229)(NRGE1D)(G4E)::G4S::G4::huFcSEFL2 (Pb) (Fc fusion)
chain: B1 chain with S47E, S48D, E49F, L50M, A63S
For the molecule B3, the Schwann cells (SC) (ErbB3) Avg EC50 in experiment [1] is above 10 µM. In experiment [2], this molecule yielded a CM % Agonism AVG of 85%, a Cardiomyocyte (CM) (ErbB4) Avg EC50 of 350 pM and a Selectivity SC/CM above 10000.

B4: huNRG1(S177-F229)(NRGE1D) huIgG1z SELF2 Fc (Fc fusion)
chain: B1 chain with S47E, S48D, E49F, L50M
Regarding B4, in experiment [1], the Schwann cells (SC) (ErbB3) Avg EC50 came to 10 µM. In experiment [2], this molecule showed a CM % Agonism AVG of 82.2%, a Cardiomyocyte (CM) (ErbB4) Avg EC50 of 480 pM and a Selectivity SC/CM above 10000.

B5: huNRG1(S177-F229)(NRGE1D)::(G4S)2::G4::huFcSEFL2 (Pb) (Fc fusion)
chain: B1 chain with S47E, S48D, E49F, L50M, E58S, A63S
B5 returned a Schwann cells (SC) (ErbB3) Avg EC50 in experiment [1] above 10 µM. In experiment [2], this molecule came in with a CM % Agonism AVG of 80.5%, a Cardiomyocyte (CM) (ErbB4) Avg EC50 of 460 pM and a Selectivity SC/CM above 10000.

B6: huNRG1(S177-F229)(NRGE1D) (E47T_D48S_F49L_M50L) huIgG1z SELF2 Fc (Fc fusion)
chain: B1 chain with S47T, E49L
B6 yielded a Schwann cells (SC) (ErbB3) Avg EC50 in experiment [1] of 10 µM. Besides, in experiment [2], the CM % Agonism AVG was determined as 79.5%, the Cardiomyocyte (CM) (ErbB4) Avg EC50 came to 390 pM and the Selectivity SC/CM was above 10000.

B7: huNRG1(S177-F229)(NRGE1D)::(G4A)2:G4::huFcSEFL2 (Pb) (Fc fusion)
chain: B1 chain with S47E, S48D, E49F, L50M, E58A
With B7, the Schwann cells (SC) (ErbB3) Avg EC50 in experiment [1] is above 10 µM. In experiment [2], this molecule had a CM % Agonism AVG of 78.8%, a Cardiomyocyte (CM) (ErbB4) Avg EC50 of 320 pM and a Selectivity SC/CM above 10000.

B8: huNRG1(S177-Q237)(3H8)::3xG4S::huFcSEFL2 (Pb) (Fc fusion)
chain: SHLVKCGEKHKSFCVNGGECYMVEGSSIPSRYLCKCPNEFTGDRCQEDFMASFYKAEELYQGGGGSGGGGSGGGGS[letters of human IgG1 Fc with R292C N297G V302C (EU numbers) not shown]
B8 yielded a Schwann cells (SC) (ErbB3) Avg EC50 in experiment [1] above 10 µM. In experiment [2], this molecule returned a Cardiomyocyte (CM) (ErbB4) Avg EC50 of 200 pM and a Selectivity SC/CM above 10000.

B9: huNRG1(S177-F229)(NRGE1C)(NRGmod)::G4::huFcSEFL2 (Pb) (Fc fusion)
chain: SHLVKCGEKHKSFCVNGGECFMIEGPSNPSRYLCKCPNEFTGDRCQEDFMASFAAAEELYQGGGG[letters of human IgG1 Fc with R292C N297G V302C (EU numbers) not shown]
In experiment [1], B9 returned a Schwann cells (SC) (ErbB3) Avg EC50 above 10 µM. In experiment [2], this molecule displayed a CM % Agonism AVG of 75.5%, a Cardiomyocyte (CM) (ErbB4) Avg EC50 of 870 pM and a Selectivity SC/CM above 10000.

B10: huNRG1(S177-F229)(NRGE1D)(NRGmod)::G4::huFcSEFL2 (Pb) (Fc fusion)
chain: B9 chain with K9S, F21Y, I23V, P26S, N28I
With B10, in experiment [1], the Schwann cells (SC) (ErbB3) Avg EC50 is above 10 µM. In experiment [2], the CM % Agonism AVG amounted to 74.9%, the Cardiomyocyte (CM) (ErbB4) Avg EC50 was 540 pM and the Selectivity SC/CM was above 10000.
